Test results from PubChem BioAssay AID1468 (National Center for Advancing Translational Sciences (NCATS), 2008).
The campaign covered roughly 280,000 compounds. About 1,100 (0.39%) were called active. The shares of active, inactive and inconclusive entries below differ from those in the screen. Calls come from the whole dose curve; as a rule, active = well fitted inhibition curve with a large enough effect; inconclusive = small, poorly fitted or top-dose-only effect, or effect the other way; inactive = flat fitted curve, though single readings scatter. No potency is given beside an inconclusive call; the fits are too rough.

target: Microtubule-associated protein tau (Homo sapiens) (UniProt P10636); experiment: qHTS for Inhibitors of Tau Fibril Formation, Fluorescence Polarization; settings: K18 P301L tau heparin fibrillization, Alexa594 FP, 6 h; series mostly up to 57.7 µM; activity, negative = inhibition: at the top concentration; note: nearly all actives have a fitted effect of over 55% in size
Summary of the method: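 Steps: dispense K18 P301L tau (15 uM plus 0.24 uM Alexa 594 tracer, final) in pH 7 sodium acetate; add compound; add heparin (20 uM final); incubate 6 hr, 37 C; add ThT (30 uM final); after 1 hr ambient, read FP.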
% is set by controls: 0 for no effect and ±100 for the full control effect; potency is the fitted concentration of half-maximal effect; tags give direction and shape of the fitted curve.

Chain of UniProt P10636 (P10636 whole entry, looked up): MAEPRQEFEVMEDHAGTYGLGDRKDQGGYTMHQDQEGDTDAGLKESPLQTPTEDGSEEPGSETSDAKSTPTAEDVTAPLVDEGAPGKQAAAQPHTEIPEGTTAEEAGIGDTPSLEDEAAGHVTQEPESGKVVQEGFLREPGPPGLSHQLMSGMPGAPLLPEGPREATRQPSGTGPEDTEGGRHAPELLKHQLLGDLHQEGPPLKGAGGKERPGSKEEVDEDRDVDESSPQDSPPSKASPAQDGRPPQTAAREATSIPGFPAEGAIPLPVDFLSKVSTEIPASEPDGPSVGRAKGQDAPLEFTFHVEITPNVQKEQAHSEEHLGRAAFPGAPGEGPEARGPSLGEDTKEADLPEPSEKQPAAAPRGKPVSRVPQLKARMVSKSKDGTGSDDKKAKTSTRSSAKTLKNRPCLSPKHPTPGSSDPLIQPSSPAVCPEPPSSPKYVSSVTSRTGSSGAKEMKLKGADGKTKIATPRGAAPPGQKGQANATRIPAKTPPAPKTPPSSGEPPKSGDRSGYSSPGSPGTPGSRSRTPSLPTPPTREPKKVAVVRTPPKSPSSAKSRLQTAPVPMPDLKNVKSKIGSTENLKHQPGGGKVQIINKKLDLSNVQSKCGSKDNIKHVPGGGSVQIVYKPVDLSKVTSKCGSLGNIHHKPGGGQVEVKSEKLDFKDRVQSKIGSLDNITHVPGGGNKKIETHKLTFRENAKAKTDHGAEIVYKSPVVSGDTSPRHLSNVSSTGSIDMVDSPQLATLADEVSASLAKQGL

Structure (SMILES)	Potency	activity, negative = inhibition
CCOC(=O)c1sc(NC(=O)Nc2ccccc2)cc1C	inconclusive [inhibitor, single point]	
O=C(Oc1ccccc1)c1cccc2cccc(C(=O)Oc3ccccc3)c12	inconclusive [inhibitor, single point]	
CCc1c(C)sc2c1CCN(C(=O)Nc1ccc(F)c(Cl)c1)C2c1ccc(F)cc1 (configuration not stated)	inconclusive [inhibitor, partial curve]	
COc1ccc(CCNC(=O)CCn2c(=O)c3ccccc3n(CC(=O)Nc3ccc(C)cc3C)c2=O)cc1OC	inconclusive [inhibitor, single point]	
O=C(Nc1ccc(F)cc1F)c1ccccc1-c1ccccc1	inconclusive [inhibitor, full curve, poor fit]	
CSc1cccc(NC(=O)Nc2nc3c(C)cccc3s2)c1	inconclusive [inhibitor, full curve]	
Cc1ccc(NC(=O)c2ccccc2NS(=O)(=O)c2ccc(Cl)s2)cc1		inactive: 9.14%
Cc1cc(C)cc(NC(=S)N2CCN(c3ncc(C(F)(F)F)cc3Cl)CC2)c1	inconclusive [inhibitor, single point]	
O=C(Cn1c(=O)sc2ccccc21)Nc1ccc(S(=O)(=O)N2CCCCC2)cc1	inconclusive [inhibitor, partial curve]	
COc1cc(/C=N/NC(=O)c2cc(-c3ccccc3)sc2N)cc(OC)c1OC	inconclusive [activator, partial curve]	
COc1cc(NC(=O)Nc2ccccc2)c(OC)cc1NC(=O)CN1CCCCC1	inconclusive [activator, partial curve]	
COc1ccc(C2CC(=O)C(CS(=O)(=O)c3ccccc3)C(=O)C2)cc1 (configuration not stated)	inconclusive [inhibitor, single point]	
COC(=O)CN(Cc1ccccc1)S(=O)(=O)c1ccc(OC)c(OC)c1	inconclusive [inhibitor, single point]	
CCCc1ccc(-c2cc(NC(=O)CSc3nnc(N)s3)n(-c3ccccc3)n2)cc1	inconclusive [inhibitor, partial curve]	
CCC1CN(C(=O)Nc2ccc(C)c(F)c2)c2ccccc2S1 (configuration not stated)	inconclusive [inhibitor, single point]	
Cc1cc2c(cc1S(=O)(=O)CCC(=O)NCCc1ccccc1)OCC(=O)N2		inactive: -3.63%
Cc1ccc2[nH]c(C)c(/C=N/Nc3nc4ccccc4s3)c2c1	inconclusive [inhibitor, single point]	
CCCCc1ccc(CC2S/C(=C(\C#N)C(=O)N3CCOCC3)N(c3ccccc3)C2=O)cc1 (configuration not stated)	inconclusive [activator, single point]	
CCOc1ccc(-c2nnc(SCC(=O)NCc3ccccc3)o2)cc1	inconclusive [inhibitor, single point]	
COc1ccc(OC)c(C(=O)/C=C/c2ccccc2C(F)(F)F)c1		inactive: -14.6%
CC(=O)c1ccc(NC(=O)CC(c2cccs2)N2Cc3ccccc3C2=O)cc1 (configuration not stated)	inconclusive [inhibitor, single point]	

Structure (SMILES)	Potency	activity, negative = inhibition
COC(=O)c1ccc(Oc2coc3cc(OCc4ccc([N+](=O)[O-])cc4)ccc3c2=O)cc1		inactive: 1.67%
COc1ccc(OCC(=O)N/N=C/c2ccc(N(C)C)cc2)cc1	inconclusive [activator, single point]	
CC(C)COc1ccc(CSCCNC(=S)Nc2ccccc2)cc1	inconclusive [inhibitor, partial curve]	
CCOC(=O)c1ccc(NC(=O)c2ccc(=O)n(Cc3cccc(C)c3)c2)cc1	inconclusive [inhibitor, partial curve]	
COc1ccc(N2CCN(c3nc4ccc(C)cc4n4nnnc34)CC2)cc1	inconclusive [activator, full curve, poor fit]	
COc1ccc(-c2csc(NC(=O)CSc3nnc(Nc4ccccc4C)s3)n2)cc1	inconclusive [inhibitor, partial curve]	
Cc1ccc(CN2CCN(Cc3ccncc3)CC2CCO)o1 (configuration not stated)	inconclusive [inhibitor, single point]	
O=C(CN1C(=O)COc2ccc(S(=O)(=O)Nc3ccccc3)cc21)Nc1cccc(Cl)c1	inconclusive [inhibitor, partial curve]	
COc1cccc2c1Oc1ncccc1N(C(=O)CCC(=O)NCc1ccccc1Cl)C2		inactive: -0.0154%
O=C(O)/C=C\C(=O)Nc1ccccc1C(=O)N1CCN(c2ccc(Cl)cc2)CC1		inactive: -2.61%
COc1ccc2c(c1)cc1c(=O)n(CC(=O)NCCCc3ccccc3)nc(C)n12		inactive: -17.8%
COC(=O)c1ccc(Cn2nnc3c(=O)[nH]c(C4CCCN(S(=O)(=O)c5cccc(Cl)c5)C4)nc32)cc1 (configuration not stated)	inconclusive [inhibitor, single point]	
CCN(CC)S(=O)(=O)c1ccc(N2CCCC2)c(NS(=O)(=O)c2ccc([N+](=O)[O-])cc2)c1	inconclusive [activator, partial curve, poor fit]	
O=C(O)c1ccc(-c2nc(-c3ccccc3)c(-c3cccs3)[nH]2)cc1	inconclusive [activator, partial curve]	
COc1ccc(-n2cc(C(=O)c3cc4ccccc4oc3=O)c(C(C)=O)n2)cc1	inconclusive [inhibitor, partial curve]	
CCCCCCC(=O)NNC(=O)CC(=O)Nc1ccccc1C(=O)O		inactive: -1.17%
COc1cc(NC(=O)Cn2c(=O)n(Cc3ccco3)c(=O)c3oc4ccccc4c32)cc(OC)c1	inconclusive [inhibitor, partial curve]	
CN(C)C(=O)c1ccc2c(c1[N+](=O)[O-])C(=O)c1ccccc1C2=O		inactive: -4.2%
COc1ccc(-c2nnc3c4ccccc4c(C)nn23)cc1		inactive: 0.568%
O=C(O)C=Cc1ccc(Cn2ccnc2)cc1		inactive: 3.59%
N#CC1=C(N)C(C#N)(C#N)[C@H](c2cccnc2)[C@H]2CN(C(=O)OCc3ccccc3)CC=C12	inconclusive [inhibitor, partial curve]	
